# Test results: PubChem BioAssay AID686979 (National Center for Advancing Translational Sciences (NCATS), 2013)
# Out of some 420,000 compounds screened, about 50,000 (12%) were called active. The inconclusive results got no clear call from the source; some entries with a clear call stand among them for comparison. Calls follow the shape of the dose curve; as a rule, active = well fitted inhibition curve with a large enough effect; inconclusive = small, poorly fitted or top-dose-only effect; inactive = flat fitted curve, though single readings scatter. Potencies of inconclusive entries are left out as doubtful fits.
# Test: qHTS for Inhibitors of human tyrosyl-DNA phosphodiesterase 1 (TDP1): qHTS in cells in presence of CPT; also: nearly all actives have a fitted effect of over 55% in size
# Settings: chicken DT40 Tdp1-/-;hTDP1 cells + 20 nM CPT, ATP luminescence, 48 h; activity change, negative = growth inhibition: at 46.2 µM (top of the series) unless noted
# Summary of the method: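 Chicken DT40 Tdp1-/- cells stably complemented with human TDP1 were seeded at 400 cells/well in medium containing 20 nM camptothecin, exposed to pin-transferred compounds, and grown at 37 °C for at least 48 hr. Viability was read as ATP luminescence.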
# % is scaled to controls: 0 for no effect and ±100 for the full control effect; potency is read from the fitted curve at half-maximal effect; tags tell the direction and shape of the fitted curve.
Structure (SMILES),Potency,"activity change, negative = growth inhibition"
CC(C)(C)n1nnnc1C(c1ccccc1)N1CCN(c2ncc(C(F)(F)F)cc2Cl)CC1 (configuration not stated),"inconclusive [inhibitor, single point]",
Cc1ccc(NC(=S)NC(=O)C2CCCC2)c(Br)c1,,inactive: -25%
CC(C)(C)C(=O)C(CO)(Oc1ccc(Cl)cc1)n1cncn1 (configuration not stated),"inconclusive [inhibitor, single point]",
CSc1nnc(-c2ccc(C(F)(F)F)nc2C)o1,,inactive: 10.5%
COc1ccc(CN2CCC(n3nccc3NC(=O)CCOc3ccccc3)CC2)cc1C,"inconclusive [inhibitor, single point]",
CCOC(=O)C#CC(CCc1ccccc1)OS(N)(=O)=O (configuration not stated),"inconclusive [inhibitor, single point]",
Cc1ccc([C@H]2C[C@H](O)[C@@H](n3cc(COC(=O)c4ccccc4)nn3)CN2C(=O)c2cccs2)cc1,"inconclusive [inhibitor, partial curve]",
CSc1cccc(NC(=O)/C=C/c2ccco2)c1,active: 23.1 µM,
CC(=O)N1CCc2cc(S(=O)(=O)NC(CC(C)C)C(=O)N3CCc4ccccc4C3)ccc21 (configuration not stated),"inconclusive [inhibitor, single point]",
Cc1ccc(Nc2nc(-c3ccc(S(=O)(=O)N4CCCC4)cc3)cs2)cc1C,"inconclusive [inhibitor, single point]",
COc1cc(CN2CC(=O)N(c3ccc(C)cc3)C2=S)cc(OC)c1OC,"inconclusive [inhibitor, single point]",
COc1ccc(-c2cc(C(=O)NNC(=O)c3csc(N4CCOCC4)n3)c3ccccc3n2)cc1OC,active: 20.6 µM,
O=S(=O)(c1cccs1)N1CN(Cc2ccc(Cl)cc2)c2nc3ccccc3nc21,"inconclusive [inhibitor, partial curve]",
N#Cc1nc(-c2ccco2)oc1NCc1ccco1,"inconclusive [inhibitor, partial curve, poor fit]",
COc1cc(/C=C2\SC(=O)NC2=O)ccc1OCC(=O)N1CCOCC1,,inactive: 11.5%
COc1ccc(C(=O)c2sc(Nc3ccc(NC(C)=O)cc3)nc2C)cc1,active: 29.1 µM,
CC(C)(C)[C@@H]1COC(=O)[C@H](Cc2ccc(F)cc2)CC/C=C\C[C@@H](CC(=O)NCCO)C(=O)N1,"inconclusive [inhibitor, single point]",
CCOC(=O)c1c(-c2cccc([N+](=O)[O-])c2)csc1N,"inconclusive [inhibitor, single point]",
COc1cc(OC)c2c(c1Cl)OC1(C2=O)C(O)=CC(=O)CC1C (configuration not stated),,inactive: -20.9%
COc1ccc(-n2nc(C(=O)NCC(=O)NCC3COc4ccccc4O3)c3ccccc3c2=O)c(OC)c1 (configuration not stated),"inconclusive [inhibitor, single point]",
CCOC(=O)c1[nH]c(C)c(CCC(=O)NCc2ccc(OC(C)C)cc2)c1C,"inconclusive [inhibitor, single point]",
Nc1ncnc2c1ncn2[C@@H]1O[C@H](CNCC#Cc2ccccc2)[C@@H](O)[C@H]1O,"inconclusive [inhibitor, full curve, poor fit]",
CCC(C)(C)n1nnnc1C(c1ccc(OC)c(OC)c1)N1CCN(c2ccc(OC)cc2)CC1 (configuration not stated),"inconclusive [inhibitor, single point]",

Structure (SMILES),Potency,"activity change, negative = growth inhibition"
CCC(=O)NC(C)C(c1cccs1)N1CCN(c2ccccc2)CC1 (configuration not stated),"inconclusive [inhibitor, partial curve, poor fit]",
Cc1ccc(C(=O)COC(=O)CCNS(=O)(=O)c2ccccc2F)cc1,,inactive: -18.7%
NC(=O)c1cccc(-c2csc(C(O)c3ccccc3)n2)c1 (configuration not stated),"inconclusive [inhibitor, single point]",
Cc1sc2ncn(CC(=O)Nc3ccc(C(F)(F)F)cc3)c(=O)c2c1S(=O)(=O)N1CCN(C)CC1,"inconclusive [inhibitor, full curve, poor fit]",
Cc1cc(Nc2cccc(O)c2)c2cccc(Br)c2n1,,inactive: -23.5%
COc1ccc(N(CC(=O)NC2CCCCC2)C(=O)CCC(=O)Nc2nc(C)cs2)cc1,,inactive: -8.64%
CNS(=O)(=O)c1ccc(CNC[C@H]2O[C@@H](n3cc(C)c(=O)[nH]c3=O)C[C@@H]2O)cc1,,inactive: 2.15%
CN(CCc1ccccc1)C(c1cc2ccccc2o1)c1nnnn1C(C)(C)C (configuration not stated),"inconclusive [inhibitor, single point]",
O=C1c2ccccc2C(Nc2cccnc2)N1Cc1ccccc1Cl (configuration not stated),"inconclusive [inhibitor, single point]",
O=C(O)Cn1nc(-c2ccccc2)oc1=O,,inactive: 0.673%
CCOC(=O)Cn1c(-c2nonc2NC(=O)c2ccccc2F)nc2ccccc21,,inactive: -12.2%
CCOc1ccc(OCC(=O)c2c(O)c3ccccc3oc2=O)cc1,"inconclusive [inhibitor, single point]",
Cc1cccc2c(C(O)c3c[nH]c4c(C)cccc34)c[nH]c12,"inconclusive [inhibitor, single point]",
CCOc1ccc(NC(=S)N2CCC(NC(=O)c3ccccc3C)CC2)cc1,,inactive: -1.37%
CCO[C@H]1[C@H](NC(=O)c2cccnc2)c2ccccc2C12CCN(C(=O)c1ccoc1)CC2,"inconclusive [inhibitor, full curve]",
O=C(NC(NNc1ccc([N+](=O)[O-])cc1)(C(F)(F)F)C(F)(F)F)c1ccc(Cl)cc1,"inconclusive [inhibitor, single point]",
COc1ccccc1NC(=O)c1cc2c(CO)cnc(C)c2oc1=Nc1cc(OC)c(OC)c(OC)c1,,inactive: 1.37%
CN(C(=O)C1CCCCN1S(=O)(=O)c1ccccc1)c1ccccc1 (configuration not stated),"inconclusive [inhibitor, partial curve]",
C[C@@H]1CCCCO[C@@H](CN(C)Cc2ccc(Cl)c(Cl)c2)[C@@H](C)CN([C@H](C)CO)C(=O)c2cc(NC(=O)CCC(F)(F)F)ccc2O1,active: 8.2 µM,
CN(Cc1ccccc1OCCO)CC1CCCN(CCc2ccc(Cl)cc2)C1 (configuration not stated),"inconclusive [inhibitor, single point]",
O=C(NCCc1ccc(C(F)(F)F)cc1)C1COc2ccccc2O1 (configuration not stated),"inconclusive [inhibitor, partial curve, poor fit]",
COc1cc2c(cc1NC(=O)c1ccc(C)c([N+](=O)[O-])c1)oc1ccccc12,"inconclusive [inhibitor, single point]",
O=C(Nc1nncs1)c1cc(S(=O)(=O)N2CCCCC2)ccc1Cl,,inactive: -0.207%

Structure (SMILES),Potency,"activity change, negative = growth inhibition"
CC1=NN(Cc2ccccc2)C(=O)C1C(c1ccncc1)C(C#N)C#N (configuration not stated),"inconclusive [inhibitor, single point]",
O=C(CS(=O)(=O)c1ccccc1)N1CCc2ccccc21,,inactive: 19.9%
COc1ccc(-c2csc(NS(=O)(=O)c3ccc([N+](=O)[O-])cc3)n2)cc1,"inconclusive [inhibitor, single point]",
COc1ccc2c(CNCc3cccs3)c(C(=O)O)n(Cc3cccc(F)c3)c2c1,,inactive: -7.59%
CC1CCC(NC(=O)c2nn(C)c3c2CS(=O)(=O)c2ccccc2-3)CC1 (configuration not stated),"inconclusive [inhibitor, single point]",
COc1ccc(C2C(C#N)=C(N)OC3=C2C(=O)CCC3)cc1Cn1nc(C)c([N+](=O)[O-])c1C (configuration not stated),"inconclusive [inhibitor, single point]",
CCCc1cc2c(c(NC(C)=O)n1)c(=O)oc1ccccc12,,inactive: 0.261%
Cc1ccc(S(=O)(=O)N2CCCCC2)cc1NC(=O)Cn1ncc(Cl)c(Cl)c1=O,active: 4.61 µM,
COc1ccc(NC(=S)N2CCCN(Cc3cccc(Cl)c3)C2)cc1,"inconclusive [inhibitor, single point]",
CCCSc1ccc([C@@H]2[C@@H]3C(=O)N(CC)C(=O)[C@@H]3[C@]3(C(=O)OC)CCCCN23)cc1,active: 18.4 µM,
COc1ccc(NC(=O)c2cc(C(C)=O)n3ccccc23)cc1Cl,"inconclusive [inhibitor, single point]",
CCn1c(SCC(=O)NC2CCCC2)nnc1-c1c[nH]c2ccccc12,"inconclusive [inhibitor, single point]",
CC1(NC(=O)c2ccccc2)CCN(CCCc2ccccc2)C1=O (configuration not stated),active: 3.66 µM,
COCc1nc2ccccc2n1CCOc1ccccc1OC,,inactive: -25.2%
COc1cc(-c2nc(-c3ccc4c(c3)-c3ccccc3S4(=O)=O)c(-c3ccccc3)[nH]2)cc(OC)c1OC,active: 18.4 µM,
COc1cc(/C(O)=C(\C#N)c2nc3ccccc3[nH]2)cc(OC)c1OC,"inconclusive [inhibitor, single point]",
CCOc1ccc(/C=N/NC(=S)NC2CC3CCC2C3)cc1 (configuration not stated),"inconclusive [inhibitor, single point]",
C=CC1CN(C(=O)OCC(Cl)(Cl)Cl)C2CC3c4ccc(OC)cc4NC3C3CC1C2CO3 (configuration not stated),"inconclusive [inhibitor, single point]",
CCOC(=O)c1cccc(NC(=O)C2CCN(S(=O)(=O)c3c(C)noc3/C=C/c3ccc(C)cc3)CC2)c1,active: 20.6 µM,
CCC1Nc2ncnc(N3CCCCC3)c2N(Cc2ccc(Cl)cc2)C1=O (configuration not stated),"inconclusive [inhibitor, single point]",
CN1C(=S)N(c2cccnc2)C(=O)/C1=C\c1ccc(C(C)(C)C)cc1,active: 16.4 µM,
